This is an account of results in a collection of fitness landscapes (doi:10.1126/science.1257360).

B1: PhoQ; a variant is named by its letters at X, in order, P23837 (parent)
chain: MKKLLRLFFPLSLRVRFLLATAAVVLVLSLAYGMVALIGYSVSFDKTTFRLLRGESNLFYTLAKWENNKLHVELPENIDKQSPTMTLIYDENGQLLWAQRDVPWLMKMIQPDWLKSNGFHEIEADVNDTSLLLSGDHSIQQQLQEVREDDDDAEMTHSVAVNVYPATSRMPKLTIVVVDTIPVELKSSYMVWSWFIYVLSANLLLVIPLLWVAAWWSLRPIEALAKEVRELEEHNRELLNPATTRELTSLVRNLNRLLKSERERYDKYRTTLTDLTHSLKTPLXXLQXXLRSLRSEKMSVSDAEPVMLEQISRISQQIGYYLHRASMRGGTLLSRELHPVAPLLDNLTSALNKVYQRKGVNISLDISPEISFVGEQNDFVEVMGNVLDNACKYCLEFVEISARQTDEHLYIVVEDDGPGIPLSKREVIFDRGQRVDTLRPGQGVGLAVAREITEQYEGKIVAGESMLGGARMEVIFGRQHSAPKDE

The list shows a part of the results.

This assay covers variants of B1. Briefly: enrichment ratio after two sorts for PhoP signalling (ratio (wild type AVST 3.29)); higher = more functional. As to conditions: with PhoP (E. coli).
With RFLT, the enrichment ratio is not above 0.25.

Regarding VPAL, the enrichment ratio is not above 0.25.

MYFQ: the enrichment ratio is not above 0.25.

For the variant SGYF, the enrichment ratio worked out at 1.57.

Take WRST: the enrichment ratio was not above 0.25.

Turning to ECSN, the enrichment ratio was not above 0.25.

Turning to DWAM, the enrichment ratio was not above 0.25.

Consider RMGW, for which the enrichment ratio was not above 0.25.

For the variant QMMS, the enrichment ratio is not above 0.25.

On to HGRW, for which the enrichment ratio was not above 0.25.

As for APWR, the enrichment ratio is not above 0.25.

Turning to DNYS, the enrichment ratio is not above 0.25.

Turning to KMAF, the enrichment ratio is not above 0.25.

On to FSRE, for which the enrichment ratio is not above 0.25.

On to GRVC, for which the enrichment ratio is not above 0.25.

In the case of NMRN, the enrichment ratio was not above 0.25.

Turning to YMPY, the enrichment ratio was not above 0.25.

Take FWQW: the enrichment ratio is not above 0.25.

Take QMYE: the enrichment ratio was not above 0.25.

With YHLQ, the enrichment ratio was not above 0.25.

As for VMDK, the enrichment ratio was not above 0.25.

As for LTRA, the enrichment ratio was not above 0.25.

Take KMSG: the enrichment ratio is not above 0.25.

Consider IKKY, for which the enrichment ratio is not above 0.25.

TMCK: the enrichment ratio came out at 3.91.

QFGN: the enrichment ratio was not above 0.25.

With CCAS, the enrichment ratio is not above 0.25.

In the case of TGDH, the enrichment ratio was not above 0.25.

Turning to PFKL, the enrichment ratio was not above 0.25.

Turning to EGHD, the enrichment ratio was not above 0.25.

Regarding LRVL, the enrichment ratio is not above 0.25.

As for HKEL, the enrichment ratio was not above 0.25.

With PQGI, the enrichment ratio was not above 0.25.

VWNH: the enrichment ratio was not above 0.25.

For WWER, the enrichment ratio is not above 0.25.

As for LLLP, the enrichment ratio was not above 0.25.

Consider SIMW, for which the enrichment ratio was 2.09.

With MHDK, the enrichment ratio is not above 0.25.

For TGPW, the enrichment ratio was not above 0.25.

As to FYFC, the enrichment ratio is not above 0.25.

On to DWML, for which the enrichment ratio was not above 0.25.

As for HMIW, the enrichment ratio was not above 0.25.

For the variant LWPP, the enrichment ratio was not above 0.25.

As to ERHY, the enrichment ratio was not above 0.25.

Take AYSI: the enrichment ratio was not above 0.25.

For the variant YNIP, the enrichment ratio was not above 0.25.

Turning to ITTL, the enrichment ratio was determined as 0.464.

In the case of DHVG, the enrichment ratio was not above 0.25.

On to RINV, for which the enrichment ratio is not above 0.25.

For the variant TQST, the enrichment ratio is 5.28.

Regarding IRSS, the enrichment ratio is not above 0.25.

Consider ELMR, for which the enrichment ratio was not above 0.25.

As to YGGH, the enrichment ratio was not above 0.25.

With EQAL, the enrichment ratio was not above 0.25.

For the variant MWSV, the enrichment ratio is not above 0.25.

Regarding WINA, the enrichment ratio is not above 0.25.

GRYK: the enrichment ratio is not above 0.25.

Consider QFHR, for which the enrichment ratio is not above 0.25.

With VQTW, the enrichment ratio was not above 0.25.

As to VRSD, the enrichment ratio was not above 0.25.

With FFQK, the enrichment ratio was not above 0.25.

For the variant YYLI, the enrichment ratio was not above 0.25.

For SGWM, the enrichment ratio was 9.28.

For the variant ITHD, the enrichment ratio was not above 0.25.

Consider DVHD, for which the enrichment ratio is not above 0.25.

For QYLR, the enrichment ratio was not above 0.25.

On to KAKH, for which the enrichment ratio was found to be 6.08.

Consider PRYC, for which the enrichment ratio is not above 0.25.

Regarding LTLR, the enrichment ratio is not above 0.25.

For VYQD, the enrichment ratio was not above 0.25.

As for LRIH, the enrichment ratio was not above 0.25.

With VWHE, the enrichment ratio was not above 0.25.

Regarding TLWT, the enrichment ratio is not above 0.25.

NARA: the enrichment ratio is not above 0.25.

Consider TACT, for which the enrichment ratio was determined as 8.24.

Turning to YIES, the enrichment ratio is not above 0.25.

With MQSF, the enrichment ratio is not above 0.25.

As to GDEP, the enrichment ratio is not above 0.25.

For the variant GNYM, the enrichment ratio was not above 0.25.

For YSPY, the enrichment ratio was not above 0.25.

On to RMSE, for which the enrichment ratio is not above 0.25.

Turning to NLGN, the enrichment ratio is not above 0.25.

Consider QRMA, for which the enrichment ratio is not above 0.25.

Turning to YWND, the enrichment ratio was not above 0.25.

For the variant DMIM, the enrichment ratio is not above 0.25.

In the case of EYKH, the enrichment ratio was not above 0.25.

Regarding VTYE, the enrichment ratio is not above 0.25.

As to AKQS, the enrichment ratio is not above 0.25.

IRQV: the enrichment ratio was not above 0.25.

On to MTWD, for which the enrichment ratio was not above 0.25.

Regarding QQMD, the enrichment ratio is not above 0.25.

For the variant SYYR, the enrichment ratio was not above 0.25.

With WRYE, the enrichment ratio is not above 0.25.

On to PFGY, for which the enrichment ratio is not above 0.25.

In the case of SIAI, the enrichment ratio is 11.6.

As for YVYH, the enrichment ratio was not above 0.25.

With RALF, the enrichment ratio was not above 0.25.

IEAR: the enrichment ratio is not above 0.25.

For the variant LGYW, the enrichment ratio is not above 0.25.

Turning to GKFS, the enrichment ratio is not above 0.25.

Turning to KTCD, the enrichment ratio was not above 0.25.

Take FKLA: the enrichment ratio is not above 0.25.

For ETSD, the enrichment ratio was not above 0.25.

On to AKRN, for which the enrichment ratio is not above 0.25.

For the variant DGGY, the enrichment ratio was not above 0.25.

Regarding DLHC, the enrichment ratio is not above 0.25.

In the case of EASR, the enrichment ratio is not above 0.25.

Consider HLHQ, for which the enrichment ratio was not above 0.25.

As for PLGY, the enrichment ratio is not above 0.25.

With QHEH, the enrichment ratio was not above 0.25.

PGRR: the enrichment ratio was not above 0.25.

For ITVA, the enrichment ratio is not above 0.25.

Consider MSHF, for which the enrichment ratio was 2.07.

With DMQY, the enrichment ratio is not above 0.25.

Turning to YKEK, the enrichment ratio was not above 0.25.

Take HRAL: the enrichment ratio is not above 0.25.

As to PKIS, the enrichment ratio is not above 0.25.

NSNN: the enrichment ratio is not above 0.25.

On to LHMP, for which the enrichment ratio is not above 0.25.

Take TIRA: the enrichment ratio is not above 0.25.

As to SAIW, the enrichment ratio is not above 0.25.

For the variant AVCE, the enrichment ratio was not above 0.25.

For the variant NASR, the enrichment ratio was not above 0.25.

Take WMSI: the enrichment ratio is not above 0.25.

As for QIGR, the enrichment ratio was not above 0.25.

As for DRYW, the enrichment ratio is not above 0.25.

As to NANF, the enrichment ratio is not above 0.25.

Consider ELKY, for which the enrichment ratio was not above 0.25.

For LGLM, the enrichment ratio came to 6.93.

Regarding LAWC, the enrichment ratio was not above 0.25.

Take IAFW: the enrichment ratio was not above 0.25.

For the variant WRDC, the enrichment ratio is not above 0.25.

Consider LTCQ, for which the enrichment ratio was not above 0.25.

With GLIT, the enrichment ratio is not above 0.25.

As to ECWR, the enrichment ratio was not above 0.25.

As to CWVK, the enrichment ratio is not above 0.25.

As to ATPS, the enrichment ratio is not above 0.25.

As for VIIH, the enrichment ratio was not above 0.25.

Turning to FERS, the enrichment ratio is not above 0.25.

NQRG: the enrichment ratio was not above 0.25.

As for FPRV, the enrichment ratio was not above 0.25.

As for DDAS, the enrichment ratio was not above 0.25.

Turning to AWTE, the enrichment ratio is not above 0.25.

As to NCAW, the enrichment ratio is not above 0.25.

For QMNH, the enrichment ratio is not above 0.25.

Consider QRTD, for which the enrichment ratio was not above 0.25.

As for PDKI, the enrichment ratio is not above 0.25.

AYGY: the enrichment ratio was not above 0.25.

For EEIS, the enrichment ratio is not above 0.25.

Consider AYLS, for which the enrichment ratio is not above 0.25.

As for RPNS, the enrichment ratio is not above 0.25.

As to FCRG, the enrichment ratio was not above 0.25.

As to LVYA, the enrichment ratio is not above 0.25.
